# Source: the RNAGym collection of RNA variant scans (doi:10.7554/elife.90254)
# The source gives no read counts; variants with many changes may rest on few reads.
# B1: LINE1-mini (parent)
# chain: GGCAGAGCUCAACACAGCGUGGCAAAGUGGCUGUGGCUAGACUGCC
# Variants of: B1
# Test: self-cleavage, relative activity (ratio to wild type); higher = more cleavage; in vitro, sequencing; the parent is a self-cleaving ribozyme
row,Variant,self-cleavage
1,A14G G27U C46A,0.03
2,C3A C8A U20A,0.4
3,G19A C31A U43A,0.08
4,G2U A6C C23U,0.05
5,A14G C31A G36C U38C C46A,0.12
6,G5A C13A A24U G35C G36U,0.04
7,C3U U20C G27C C46A,0.03
8,C15U U38G A41U,0.02
9,G21U U34C U38G U43C,0.01
10,C8U C18A G40U,0.1
11,A4C C42U U43C,0.17
12,C3G A16G A24C,0.03
13,G5C C10A U20G C31A,0.01
14,G17C G30U G33A,0.04
15,C3A A6G C46A,0.12
16,G36A A39G G40U,0.24
17,A25U C37G U38G A41C C45G,0.01
18,A6C U9A A24G C46U,0.17
19,U9G G17U G27C,0.01
20,A6G U9G C10A C18A C37A,0
21,A12U C13A U28G,0.06
22,A11U G21U A26G C31U C45U,0.08
23,G5U G27U C42U,0.09
24,A14G A25G U43C,0.06

row,Variant,self-cleavage
1,G19C U34A U38C C46A,0.07
2,C10A C13A G40U,0.01
3,C10A U20G G40U G44U,0.01
4,G2A A4C C8U G19C A24G G35A C37G,0.31
5,C8U G22A G36U A41C C46U,0.05
6,C8A C15U C46A,0.13
7,U9A C13G G22U,0.06
8,C8G G21U U34A,0
9,G2A U9A A12G G40U,0.12
10,A6U C18G G36C G44U,0.09
11,C8U U9C C10A G19U G36A,0
12,A4C C8U C18G G21C U34C,0.07
13,G5U G7A A14G G35C,0.38
14,C10G G19A C23U,0.1
15,U20G A26G G30A C31G,0.02
16,A11C A14C A26C G36C,0.02
17,C15U G19A G40U,0.06
18,C13G G21A G22A,0.51
19,G1C C10G A12U G17A G44A,0
20,C18A U28C G44U,0.11
21,C8U A26U C45G,0.2
22,A6C G33U U38C,0.08
23,A4U G5A G21A G27C G33C,0.03
24,G1A G5A A26G,0.15

row,Variant,self-cleavage
1,A6C G7C G29A,0.1
2,G1C U34C G40U C45A,0.03
3,G7A A24G G40C,0.02
4,A6U A11C C13U G19U G27U C37G,0
5,G1U C8U C18G A26G G27U,0.19
6,G2A A4C C8A A26U C46A,0.68
7,C31A U32C G40C,0.01
8,U9G C15G A24U,0.07
9,C13G G17A U38C A39G,0.01
10,G5C A6G U43A,0.08
11,A6C C8U G19C,0.12
12,G1C C10A A12G A25C,0
13,U9C A16C G35A G36A,0.02
14,G17U A26G G30U C37G C42A,0.03
15,A12G A26U C31G U32C G33C U43G,0.02
16,A11G U32G U34C G35A C37U,0.02
17,G5U C18U C23G A24U G40A G44C,0.04
18,A12C C37U A39G A41U,0.01
19,C23U G27U C31G U32G,0.08
20,C23G A26G C37U A41G,0.01
21,U9G G17A G21A U34A C42G,0.07
22,A14U C18A G44C,0.04
23,G1C G5C G19U,0.02
24,G5U C13A G17C,0.05

row,Variant,self-cleavage
1,C10U A12U C13G C23U A25C,0.05
2,G5U C15A G40A,0.02
3,G1C A16C U38G,0
4,C10A C18G U20G,0.01
5,G21U U28G C42G,0.03
6,A4G C18A C42G,0.29
7,G1U C13U U20C U34G,0.03
8,G27U U34G G44C,0.05
9,G5C G7U C13U G17A,0.15
10,G2A A14U A26G G30A,0.36
11,G1C C15G A16C C42U,0
12,C23G G35A C45U,0.11
13,G2A G19A G30C G36U,1.06
14,C8G A14G G27A,0.21
15,A4C C10A C18A,0.04
16,G1U A6G C23U,0.05
17,A4G G17A A24C,0.06
18,C23U G27U A41G,0.12
19,G2U G5U C13A A25G,0.02
20,C15U A16C U20A A41U C45U,0.01
21,C10G G36C A39C,0
22,A11G C13U C31A,0.04
23,G5U C8A A16C C18U C42U C45G,0.01
24,G1U G29U G35C A41C,0.02

row,Variant,self-cleavage
1,C3A A12U C31A C46U,0.01
2,C18G U28A C31G,0.03
3,G7U A16G C31A C45G,0.26
4,A12C A14G G33U G36C,0
5,G5U C23U G29A C31U G35A,0.04
6,G19C G36U U38A,0.01
7,G7A C18U G19U G30U G44U,0.4
8,G1U C31A A41U,0.02
9,G21U C23G A24U C45A,0.29
10,C3U A14G U32A G35C,0.04
11,G5C A16C A26G,0.05
12,C15A G17U A24G G29C,0.06
13,C10A A12G A25C,0
14,G5A C8G G21A C42A,0.12
15,C3A C13U C18U G27A C31U C37A,0.18
16,A6U A11G U38A,0.02
17,C23G C31A G33U,0.02
18,C15A A16U G17A A24C A25G U28C G44C,0.01
19,C13A U20A C31A G33A C42G,0.02
20,G17U G29C C42U,0.07
21,U9G A26U G35U,0
22,C3A C18A C31A A41U,0.04
23,A12U C18U U20G U32C,0.02
24,C8U U20C G33A A41C C46G,0.12

row,Variant,self-cleavage
1,G5A G7A A16C A24C U32G,0.24
2,A16G G29U U34A,0.02
3,G19C G33U C46U,0.4
4,C13G A26C U32A,0.01
5,G2U G7A A16U,0.01
6,C3A C13A A26C G40A,0.18
7,C8G A12U G30C,0.06
8,G5U U9G C18G G29A G40U,0.02
9,A4G C13A C18A G22C,0.05
10,A11C U20C G29C G44A,0
11,C8G C15G A16G G21C G36A C42U,0
12,A6U G7U U9A G19C U38A G40A,0.01
13,G22C A25G G30A U34G,0.04
14,C3A A12G A26G U34C C37U A39C C46U,0.09
15,A26U G30U U34C C42A,0.29
16,G7U U9G C13G A14C C31U,0.01
17,A16G G17U A26C C31U,0.01
18,U20A G29A G36U,0.11
19,C15U G21C C31U,0.41
20,G7A C18A A26U,0.16
21,A6U G21A G27A,1.64
22,A4U A16G G22U G29A C31G,0.02
23,C13U G19A A25U A26G C45A,0.03
24,C18A C23G A39G,0.05

row,Variant,self-cleavage
1,C10G A16C U20G G30U G33U C42A,0.01
2,C13A C23U U32A,0
3,A4G C13G G27A C46U,0.1
4,G5C A11G A16G G40A,0.02
5,C8G G22U A26G,0.08
6,A4C G7C C23A U38A,0.14
7,A6G C8A U38C C46U,0.18
8,C3G C8A G21A C23A G30A G33U A39U G40U,0.16
9,G1C A14G U28A U34A,0.03
10,G2C C10U A26C G36C,0.01
11,U9C C15A A16C C18U G29C C45U,0.02
12,A6G G7C A26C,0.08
13,C13U U34C C45U,0.04
14,C18A U20G G40C,0.01
15,C15G G22C G40A C42G,0
16,C10G G29C C31A G36A,0.02
17,C18A G33C U43A,0.13
18,G2U A14C U34C U38A,0.02
19,G2A C8A G21C G27U U34A C45U C46G,0.11
20,C3A G27C C31A,0.25
21,C3U G7A C10U G19C C45G,0.12
22,G2A C13U U28G G30U A41G,0.09
23,A11C G29A A41U,0.04
